# Among all 310,000 compounds or so, about 2,200 (0.71%) showed an effect of 50% or more. The effect is printed as a negative number. The list shows a part of the results.
# Molecular target: human ether-à-go-go-related gene (hERG) potassium channel (human, UniProt Q12809)
# Test: primary screen, population patch clamp on CHO cells stably expressing hERG
# Sequence of human ether-à-go-go-related gene (hERG) potassium channel (Q12809 whole entry, looked up): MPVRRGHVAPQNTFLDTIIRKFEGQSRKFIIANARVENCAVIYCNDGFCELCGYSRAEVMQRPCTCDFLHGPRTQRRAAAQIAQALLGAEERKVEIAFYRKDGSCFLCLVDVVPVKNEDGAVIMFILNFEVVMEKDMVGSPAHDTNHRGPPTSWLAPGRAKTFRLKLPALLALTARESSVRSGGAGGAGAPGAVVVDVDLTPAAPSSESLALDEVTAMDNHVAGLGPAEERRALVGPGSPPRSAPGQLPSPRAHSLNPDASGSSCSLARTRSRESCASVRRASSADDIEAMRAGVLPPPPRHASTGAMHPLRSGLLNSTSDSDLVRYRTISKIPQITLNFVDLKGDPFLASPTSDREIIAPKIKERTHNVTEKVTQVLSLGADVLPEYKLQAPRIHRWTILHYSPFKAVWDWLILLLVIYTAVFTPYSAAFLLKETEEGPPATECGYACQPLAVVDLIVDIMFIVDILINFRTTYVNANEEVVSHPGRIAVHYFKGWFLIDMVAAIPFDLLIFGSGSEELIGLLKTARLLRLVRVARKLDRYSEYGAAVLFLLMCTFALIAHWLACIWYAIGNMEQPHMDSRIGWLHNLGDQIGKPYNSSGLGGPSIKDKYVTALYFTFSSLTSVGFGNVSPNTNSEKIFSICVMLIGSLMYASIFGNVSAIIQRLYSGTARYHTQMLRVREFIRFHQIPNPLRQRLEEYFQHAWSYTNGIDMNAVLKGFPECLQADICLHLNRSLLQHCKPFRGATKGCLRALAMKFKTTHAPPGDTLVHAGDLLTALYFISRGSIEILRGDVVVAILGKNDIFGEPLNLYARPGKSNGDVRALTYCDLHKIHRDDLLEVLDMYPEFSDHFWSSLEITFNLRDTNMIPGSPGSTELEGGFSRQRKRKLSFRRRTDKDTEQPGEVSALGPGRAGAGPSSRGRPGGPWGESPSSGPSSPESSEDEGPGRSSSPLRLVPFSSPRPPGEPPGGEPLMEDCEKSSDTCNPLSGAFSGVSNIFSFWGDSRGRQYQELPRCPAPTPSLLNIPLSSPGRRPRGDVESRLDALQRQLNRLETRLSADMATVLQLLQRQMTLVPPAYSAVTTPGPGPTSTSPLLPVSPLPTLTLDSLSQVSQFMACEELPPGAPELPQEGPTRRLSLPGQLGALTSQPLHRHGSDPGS
row,SMILES,"hERG current change (%, negative = inhibition) at 1uM [%]"
1,Cc1ccc(C)c(-n2nnnc2SCC(=O)c2ccc3c(c2)NC(=O)CO3)c1,9.48
2,CCOC(=O)c1c(S(=O)(=O)Nc2cccc(Cl)c2)c(C)n(C)c1C,13.6
3,O=C(COc1ccc(Cl)cc1)NCCS(=O)(=O)N1CCN(c2ccccc2F)CC1,19.4
4,O=C(Cn1c2ccc(F)cc2c2nc3n(c(=O)c21)CCS3)NCC1CCCO1 (centres unmarked),9.28
5,O=C(C1CCCO1)N(Cc1ccccc1)c1ccccc1 (centres unmarked),1.69
6,CCN1CCN(Cc2c(O)ccc3c2O/C(=C\C=C\c2ccccc2)C3=O)CC1,13.4
7,O=S(=O)(Nc1ccc(N2CCOCC2)cc1)c1ccc(F)cc1F,4.78
8,O=C1CC(N2CCN(C(c3ccccc3)c3ccccc3)CC2)C(=O)N1 (centres unmarked),6.97
9,COc1ccc(S(=O)(=O)NCCSc2ccccc2)cc1OC,7.31
10,COCCN1CCN(C(=O)c2cc(COc3cncc(Cl)c3)on2)CC1,7.46
11,CCc1cc(C(=O)OC)c(NC(=O)CSc2nccn2C)s1,-1.72
12,S=P(Nn1cnnc1)(c1ccc(Br)cc1)c1ccc(Br)cc1,14.4
13,COc1ccc(S(=O)(=O)Cc2ccc(C(=O)N3CCc4ccccc4C3)o2)cc1,-16.9
14,NC(=S)Cc1ccccc1Cl,8.98
15,CN(C)C(=S)NC1(C)CCS(=O)(=O)C1 (centres unmarked),9.58
16,Cc1ccc(S(=O)(=O)CC(=O)Nc2sc(C)c(C)c2C(N)=O)cc1,11.8
17,Cc1ccc(NC(=O)c2cccnc2)cc1S(=O)(=O)N(C)C,3.05
18,CN(C)S(=O)(=O)c1cccc(C(=O)NCC2CCCCC2)c1,2.31
19,Cc1ccc2c(c1)NC(=O)C(CC(=O)NCc1ccc(F)cc1)O2 (centres unmarked),1.15
20,CCOc1ccc(CN2CCNC(=O)C2CC(=O)NCCCC2CCCC2)cc1 (centres unmarked),-9.92
21,Cc1cccc(C(=O)N(C)c2nnc(-c3ccncc3)s2)c1,6.08
22,c1ccc2nc(-c3nc4ccccc4[nH]3)ccc2c1,-0.486
23,CSCCC(NC(=O)c1ccccc1)C(=O)NCc1ccc(S(N)(=O)=O)cc1 (centres unmarked),9.58

row,SMILES,"hERG current change (%, negative = inhibition) at 1uM [%]"
1,O=C(NNC(=O)C1CC1)c1ccccc1[N+](=O)[O-],13
2,COc1cccc(-c2nc(-c3ccccc3)nc(N3CCN(C)CC3)c2C#N)c1,14.6
3,CC(Cc1ccccc1)Nc1ncnc2c1ncn2C1OC(CO)C(O)C1O (centres unmarked),5.21
4,COc1ccc2c(CC(=O)Nc3nnc(C4CC4)s3)coc2c1,10.1
5,CCOC(=O)c1c(NC(=O)CN(CC)CC)sc2c1CCN(C(=O)OCC)C2,0.777
6,C=CCNc1nc(-c2ccc([N+](=O)[O-])cc2)cs1,13
7,O=c1c2ccccc2nc2n1CCS2(=O)=O,17.7
8,Cc1nn(C)c(C(=O)NC(=S)Nc2ccccc2Br)c1Cl,10.3
9,CC1(c2ccccc2Cl)NC(=O)N(CC(=O)Nc2ccccc2OC(F)F)C1=O (centres unmarked),5.12
10,Cc1cc(-c2nnc(CCC(=O)N(C)C(C)c3cccs3)o2)no1 (centres unmarked),10.9
11,CSc1nnc(CNC(=O)c2ccccc2)n1-c1ccc(F)cc1,15.4
12,O=C(CSc1nc(=O)n(CCCN2CCOCC2)c2c1CCC2)Nc1ccc([N+](=O)[O-])cc1,-7.53
13,Cc1ccc(N2CCN(c3ccc(C)cc3)C(CC(=O)O)C2=O)cc1 (centres unmarked),8.51
14,O=C(NC(NC(=S)Nc1ccc(Cl)cc1Cl)C(Cl)(Cl)Cl)c1cccc([N+](=O)[O-])c1 (centres unmarked),4.11
15,Cc1cccn2c(=O)nc(SCC(=O)N3CCOCC3)nc12,11.4
16,COCCCNC1=C(Cl)C(=O)c2ccccc2C1=O,16.1
17,O=C(NCCOc1ccc(Cl)cc1)C(=O)NCC1CCCO1 (centres unmarked),22.4
18,CCOC(=O)C1=C(N)OC2=C(C(=O)CCC2)C1c1sccc1C (centres unmarked),6.17
19,CCOC(=O)N1CCN(C(=O)c2ccccc2NC(=O)COc2ccccc2)CC1,8
20,CC(C)(C)c1ccc(S(=O)(=O)Nc2noc3ccccc23)cc1,11.8
21,CCOC(=O)c1c(-c2ccco2)csc1N,5.11
22,CN(Cc1ccccc1)S(=O)(=O)c1ccc(Cl)c(C(=O)NCc2ccncc2)c1,0.805
23,O=C(Nc1ccnn1C1CCN(C(=O)c2cccc(Cl)c2)CC1)C1CC1,8.23

row,SMILES,"hERG current change (%, negative = inhibition) at 1uM [%]"
1,O=C(CN(c1ccccc1)S(=O)(=O)c1ccc(Cl)cc1)Nc1ccccc1C(=O)N1CCCC1,-14
2,CN(C)CCCOC(=O)c1sc2ccccc2c1Cl.Cl,-17.5
3,CN(CC(=O)Nc1ccccc1F)CC(=O)Nc1ccccc1Br,13.1
4,COc1ccc(CNC(=O)CCCCCNC(=O)N2CCn3c2nc2ccccc23)cc1,2.86
5,CN1C2CCC1CC(OC(=O)CCN1CCCC1)C2 (centres unmarked),4.97
6,COc1ccc2nc(C)cc(SCC(=O)O)c2c1,0.584
7,Cc1ccc(Cl)cc1N1CCN(C(=O)C2CCN(S(=O)(=O)c3cnc[nH]3)CC2)CC1,12.5
8,CC(C)COC(=O)c1ccccc1N1C(=O)C2C3CCC(C3)C2C1=O (centres unmarked),6.9
9,Cc1ccc(NC(=O)c2ccc(Cl)c(S(=O)(=O)N3CCCCCC3)c2)nc1,-7.77
10,CC(=O)c1ccc(N2C(=NC(=O)C3CCCO3)SC3CS(=O)(=O)CC32)cc1 (centres unmarked),-4.64
11,Cc1ccc(C)c(C(=O)C(C)Sc2nc3nn(-c4ccccc4)c(=O)c-3c3n2CCCCC3)c1 (centres unmarked),8.88
12,Oc1ccc(C[C@H]2CNC(=S)N2CCc2cc(C(F)(F)F)cc(C(F)(F)F)c2)cc1,14.8
13,COc1ccc(C(=O)NCCc2ccccc2)cc1OC,11.5
14,COc1cccc(-c2ccc(NC(=O)C3CCCN(Cc4ccco4)C3)cc2)c1 (centres unmarked),7.36
15,Cc1ccc(S(=O)(=O)N2CCCC2C(=O)n2nc(C)cc2C)cc1 (centres unmarked),3.46
16,COC(=O)c1cc(NCc2ccccc2F)ccc1N1CCOCC1,6.11
17,CC(C)c1ccc(S(=O)(=O)N2CCN(C(=O)C3CCN(C(=O)c4ccc(F)cc4)CC3)CC2)cc1,0.715
18,CCOC(=O)c1c(O)c2cccc3c2n(c1=O)CC3,15.9
19,CO.COc1ccc(C(=O)Nc2ccc(/C(C)=N/NC(=O)c3ccccc3O)cc2)cc1OC,15.3
20,CSCCC(NS(=O)(=O)c1ccccc1F)C(=O)N1CCCCCCC1 (centres unmarked),7.12
21,COc1ccc(NC(=O)c2ccccc2F)cc1Cl,10.4
22,CC1(C)C=Cc2c(ccc3c2OC[C@H](c2ccc(O)cc2O)C3)O1,11.6
23,Cc1ccc(C(=O)CSc2nc(C(C)C)nc3ccccc23)cc1,14.2

row,SMILES,"hERG current change (%, negative = inhibition) at 1uM [%]"
1,O=C(N=C1N=C2C=CC=CN2Cc2ccccc21)c1ccc(S(=O)(=O)N2CCCC2)cc1,10.7
2,O=C(COC(=O)CNC(=O)c1ccccc1F)Nc1ncc(Cl)cc1Cl,10.9
3,N/C(=N\c1nc2ccccc2o1)NC(=O)c1cccc(Cl)c1,6.33
4,CCC1Sc2ccc(S(=O)(=O)Nc3cc(OC)cc(OC)c3)cc2NC1=O (centres unmarked),6.13
5,COC(=O)c1scc(S(=O)(=O)C(C)(C)C)c1N,15.8
6,COc1ccc(-c2csc(COC(=O)C(C)(C)C)n2)cc1,12.1
7,O=C(Nc1ccc(S(=O)(=O)Nc2nccs2)cc1)c1ccc(F)c(S(=O)(=O)N2CCOCC2)c1,-10.7
8,Cc1csc(NC(=S)NC(=O)c2ccccc2)n1,13
9,Cc1nc(NC(=O)COC(=O)/C=C/c2ccco2)c(Cl)cc1Cl,12.1
10,CS(=O)(=O)CCC(C(=O)OCc1ccc(Br)cc1)N1C(=O)c2ccccc2C1=O (centres unmarked),10
11,CCn1c(SCC(=O)Nc2ccccc2OC)nnc1-c1cnccn1,13.1
12,COc1cc(OC)c(OC)cc1CNC1CCCCCC1,1.12
13,CC(C)(C)NS(=O)(=O)c1ccc(CCC(=O)N2CCCCC2)cc1,13.6
14,CCOc1cccc(NC(=O)C2CC(=O)N(C)C(=Nc3ccccc3)S2)c1 (centres unmarked),9.15
15,COc1cccc(N2CC34C=CC(O3)C(C(=O)O)C4C2=O)c1 (centres unmarked),13.7
16,CCC/C(=C1/c2ccccc2C(=O)N1c1ccccc1)c1ccc2c(c1)OCCO2,14.8
17,COc1cccc(/C=N/NC(=O)c2ccc(N3CCCC3=O)cc2)c1,-1.29
18,CC(SC1=NCCN1S(=O)(=O)c1ccc(F)cc1)c1ccccc1 (centres unmarked),11.9
19,O=C(NCC(=O)N(c1ccccc1)C(C(=O)NC1CCCC1)c1ccncc1)c1cccs1 (centres unmarked),13.1
20,CC1(C)O[C@@H]2[C@H](O1)[C@@H](COS(=O)(=O)[O-])O[C@H]2n1cnc2c(N)ncnc21.[K+],14.6

# Reference: publication PMC4336329 (PLoS ONE, 2015)
